Experimental data from PubChem BioAssay AID2546 (National Center for Advancing Translational Sciences (NCATS), 2010).
In all, about 310,000 compounds went through this assay and about 11,000 (3.5%) were called active. Inconclusive results, whose numbers are uncertain, are shown with a selection of clear calls. Calls come from the whole dose curve; as a rule, active = well fitted inhibition curve with a large enough effect; inconclusive = small, poorly fitted or top-dose-only effect, or effect the other way; inactive = flat fitted curve, though single readings scatter. No potency is given beside an inconclusive call; the fits are too rough.

Assay: VP16 counterscreen qHTS for inhibitors of ROR gamma transcriptional activity;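 note: Gal4-VP16 expression switched on by copper sulfate through the metallothionein promoter; nearly all actives have a fitted effect of over 50% in size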
Conditions: Drosophila S2 Gal4-VP16 UAS-luciferase, luminescence, 20 h; series mostly up to 53.6 µM
Potency is the fitted concentration of half-maximal effect; tags give direction and shape of the fitted curve.

SMILES	Potency
N/C(COc1ccccc1)=N\NC(=O)c1cccnc1Oc1ccccc1	active: 1.41 µM
CC1(C)OC(=O)C(=NNc2ccc(Cl)cc2)C(=O)O1	inactive
O=C(NNc1nc2c(F)cccc2s1)c1ccccc1	inconclusive [inhibitor, single point]
CCOC(=O)c1cnc(SC)nc1Sc1cc(Cl)ccc1Cl	inconclusive [inhibitor, single point]
O=C(Cc1cccs1)N(CC1CCCO1)C1(C(=O)NC2CCCC2)CCCCC1 (configuration not stated)	inactive
C/C(CC1CC(C)OC1=O)=N\NC(N)=S (configuration not stated)	inconclusive [inhibitor, single point]
COc1cc(NC(=O)c2ccco2)c(C(=O)OCC(=O)c2c[nH]c3ccccc23)cc1OC	inconclusive [inhibitor, single point]
Cc1ccc(NC(=O)CCCn2c(=S)[nH]c3ccsc3c2=O)cc1C	inconclusive [inhibitor, single point]
CC(C)c1nc(SCC(=O)N2CCCc3ccccc32)c2c(=O)n(C)c(=O)n(C)c2n1	inconclusive [inhibitor, single point]
COc1ccc2c(c1)-c1nc(/N=C/c3ccc(O)cc3)sc1CC2	inconclusive [activator, single point]
Cn1c(=S)[nH]c2ccccc21	inconclusive [inhibitor, single point]
Cc1ccc(NCC(=O)N/N=C\C(Br)=C\c2ccccc2)cc1	inconclusive [inhibitor, single point]
CC1CCC2C(C)(C)C3CC12CC[C@]3(C)O (some centres not stated)	inactive
CCOC(=O)C1CCN(C(=O)c2sc3nc(C)nc(N4CCC(C)CC4)c3c2C)CC1	inconclusive [activator, single point]
Cn1c2ccccc2c2n[nH]c(=S)nc21	inconclusive [inhibitor, single point]
Cc1cc(/C=C2/C(=O)NN(c3ccccc3)C2=O)c(C)n1-c1ccc(O)cc1	active: 3.98 µM
CC(=O)c1ccc(NC(=O)c2noc3c2CCCCC3)cc1	inconclusive [activator, full curve, poor fit]
C=CCOC(=O)/C(=C/c1cccc2ccccc12)NC(=O)c1ccccc1	inconclusive [activator, single point]
Cc1ccccc1NC(=O)/C(C#N)=C/c1ccc(-c2ccc(Cl)c(C(=O)O)c2)o1	active: 17.8 µM
CN1/C(=C\C(=O)CN2C(=O)NC3(CCCCCC3)C2=O)C(C)(C)c2ccccc21	inconclusive [inhibitor, single point]
Oc1ccccc1-c1nnc(COc2ccccc2)o1	inconclusive [inhibitor, single point]
COc1ccc(C)cc1NC(=O)CNC(c1ccccc1)c1ccc(C)cc1 (configuration not stated)	inactive
COc1ccc(-c2nc3ccccc3s2)cc1	inconclusive [inhibitor, single point]
CC(C)c1nnc(NC(=O)c2ccc3ccccc3c2)s1	inconclusive [inhibitor, single point]

SMILES	Potency
CC(=O)c1ccc(NS(=O)(=O)c2ccc(CC(C)C)cc2)cc1	active: 10 µM
COC(=O)C(Cc1ccc(OC(=O)c2ccc(Cl)cc2)cc1)N1Cc2ccccc2C1=O (configuration not stated)	inconclusive [inhibitor, single point]
O=c1oc2ccccc2c(NCc2cccc(F)c2)c1[N+](=O)[O-]	inactive
Cc1ccc(OS(=O)(=O)c2ccc(N3C(=O)CCC3=O)cc2)cc1	inconclusive [inhibitor, single point]
Cc1ccc(C(=O)C2CCN(CC(=O)Nc3nc(C)cs3)CC2)cc1	inactive
CC1=CN2C(=N)/C(=C/c3ccc(Sc4ccc(C)cc4)o3)C(=O)N=C2S1	active: 3.98 µM
Cn1cc(/C=C(\C#N)C(=O)Nc2ncc(Cc3ccc(Cl)cc3)s2)c2ccccc21	active: 2.51 µM
O=C(Nc1nccs1)c1cc(Cl)nc2ccccc12	inconclusive [inhibitor, single point]
CC1CCC/C(=C\Nc2ccc(C(=O)O)c(O)c2)C1=O (configuration not stated)	inactive
Cn1cc(S(=O)(=O)Nc2ccc(Cl)cc2Cl)c(=O)n(C)c1=O	inactive
COc1ccc(O)c(/C=N/NC(=O)c2ccc(N3CCCC3=O)cc2)c1	inconclusive [inhibitor, single point]
CCOc1ccc(-c2ccc(SCC)nn2)cc1	inconclusive [inhibitor, single point]
COc1cccc(CNCCc2c[nH]c3ccccc23)c1OCc1ccccc1	inactive
Cc1ccc(-c2nnc(Sc3nc4ccccc4o3)c3ccccc23)cc1	inconclusive [inhibitor, single point]
COC(=O)c1cccc(Nc2c3c(nc4ccccc24)CCC3)c1	inactive
Cc1sc(NC(=S)NC(=O)c2cccs2)nc1-c1ccc(C(C)C)cc1	inconclusive [inhibitor, full curve, poor fit]
C=CCNC(=O)/C=C/c1ccc(C(C)C)cc1	inconclusive [inhibitor, single point]
Cc1ccc(OCCn2c(C3CC(=O)N(Cc4ccccc4)C3)nc3ccccc32)cc1 (configuration not stated)	inconclusive [inhibitor, single point]
COc1ccc(Nc2nc(NCCN3CCOCC3)nc(Nc3ccc(OC)cc3)n2)cc1	inactive
Cc1cc(Sc2nnc(/N=C/N(C)C)s2)c2ccccc2n1	inconclusive [inhibitor, single point]
COc1ccc(/C=C/C(=O)N2CCN(c3ccccc3)CC2)cc1S(=O)(=O)N1CCOCC1	inactive
Cc1ccc(-n2nc(C(=O)N3CCOCC3)cc2-c2ccc(Cl)cc2)cc1	inconclusive [inhibitor, single point]
O=c1c2cc(F)ccc2[nH]c(=S)n1Cc1ccc(F)cc1	active: 3.16 µM
